# Data from PubChem BioAssay AID488969 (Vanderbilt High Throughput Screening Facility, 2010).
# In all, about 110,000 compounds were measured (“z-score”: median about -0.1, highest 2% from about 2 on). Some of the results follow.
# Biological target: Metabotropic glutamate receptor 8 (Rattus norvegicus) (UniProt P70579)
# Experiment: mGluR8 Gi/Go-coupled signaling modulation – cell-based, rat, thallium flux, HTS, primary screen (AID 488969)
# Details: HEK293 rat mGluR8, GIRK (G protein-gated inwardly rectifying potassium channel) thallium flux, FluoZin2; at 10 µM; stronger effect = higher value
# UniProt P70579, sequence (P70579 whole entry, looked up): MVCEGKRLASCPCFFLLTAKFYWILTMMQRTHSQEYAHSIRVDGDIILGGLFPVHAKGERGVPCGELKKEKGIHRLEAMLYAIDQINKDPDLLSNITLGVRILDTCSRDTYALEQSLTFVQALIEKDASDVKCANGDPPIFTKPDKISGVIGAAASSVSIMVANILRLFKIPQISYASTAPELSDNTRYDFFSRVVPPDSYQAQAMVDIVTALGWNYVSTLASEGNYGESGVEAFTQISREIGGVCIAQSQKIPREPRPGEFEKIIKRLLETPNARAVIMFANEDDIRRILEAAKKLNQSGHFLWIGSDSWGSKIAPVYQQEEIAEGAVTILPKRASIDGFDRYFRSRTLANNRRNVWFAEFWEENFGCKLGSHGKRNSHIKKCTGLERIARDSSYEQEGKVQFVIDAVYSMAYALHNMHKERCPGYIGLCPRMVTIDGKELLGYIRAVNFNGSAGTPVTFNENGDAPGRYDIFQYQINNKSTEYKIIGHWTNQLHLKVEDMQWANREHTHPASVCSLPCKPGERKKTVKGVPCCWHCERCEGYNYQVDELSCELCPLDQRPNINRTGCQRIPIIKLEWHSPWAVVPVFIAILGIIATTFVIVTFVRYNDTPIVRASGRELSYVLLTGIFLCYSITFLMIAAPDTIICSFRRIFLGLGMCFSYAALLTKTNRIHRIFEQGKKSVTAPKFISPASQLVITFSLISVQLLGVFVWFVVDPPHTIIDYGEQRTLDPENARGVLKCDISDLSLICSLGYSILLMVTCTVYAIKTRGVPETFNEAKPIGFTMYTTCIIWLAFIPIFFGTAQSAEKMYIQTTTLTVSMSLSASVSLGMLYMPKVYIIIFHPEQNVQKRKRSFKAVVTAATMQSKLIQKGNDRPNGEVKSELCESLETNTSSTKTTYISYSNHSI
row,Structure (SMILES),z-score
1,CN1CCc2c(c(N3CCCCC3)nc3n[nH]c(N)c23)C1,0.0981
2,Cc1cccc(N2C(=O)NC(=O)/C(=C\c3ccc4c(c3)CCCN4Cc3ccccc3)C2=O)c1,-0.759
3,c1ccc2c(CNC3CCCCCC3)c[nH]c2c1,-0.0434
4,COC(=O)C1CN(C#N)N(c2ccc(Cl)cc2)C12c1ccccc1-c1ccccc12 (stereo not drawn),0.06
5,C=CCn1c(O)c(C(C)=NCCN2CCCCC2)c(=O)[nH]c1=O,0.617
6,CCOC(=O)C1SC2(C(F)(F)C(F)F)CC1(O)c1c(c(OC)c3occc3c1OC)O2 (stereo not drawn),-1.12
7,Cc1ccc(/C=C2\C(=O)NC(=O)N(CCc3ccc(F)cc3)C2=O)o1,-0.149
8,COc1ccc(CCNC(=O)c2c(N)n(CCN3CCOCC3)c3nc4ccccc4nc23)cc1OC,-0.257
9,O=C1N(CN2CCOCC2)c2ccccc2C1(O)c1c[nH]c2ccccc12 (stereo not drawn),0.285
10,CCN(c1ccc(C(O)(C(=O)OC)C(F)(F)F)cc1)S(=O)(=O)c1ccc(C)cc1 (stereo not drawn),1.21
11,Fc1ccc(C(OCCN2CCCC2)c2ccc(F)cc2)cc1,-0.27
12,CC1(C)C2CC=C(CN3CCOCC3)C1C2 (stereo not drawn),0.372
13,Cc1cc(OC(=O)c2cccs2)c2c3c(c(=O)oc2c1)CCCC3,-0.458
14,CCOC(=O)C(C)(CC)NC(=O)CSP(=S)(OCC)OCC (stereo not drawn),-0.0861
15,COc1ccc(C2SCC(=O)Nc3c2c(C)nn3C2CCOC(C)(C)C2)cc1OC (stereo not drawn),-0.264
16,Cc1nonc1OCCNCCNc1ccc([N+](=O)[O-])c2cccnc12,-0.604
17,Cc1ccc(S(=O)(=O)NP(=O)(Oc2ccccc2)Oc2ccccc2)cc1,-0.367
18,CCOC(=O)c1c(C)[nH]c(C(=O)C(Cc2ccccc2)N(C)C)c1C (stereo not drawn),0.837
19,COc1ccc(CCC(=O)N2CCC3(CC2)OCCO3)cc1,-0.288
20,CCN(CC)c1ccc(C=C2C(=O)N(C)C(=S)N(C)C2=O)o1,-0.225
21,CCN1C(=O)NC(=O)/C(=C/c2cc(C)n(-c3sc(C)c(C)c3C#N)c2C)C1=O,-0.623
22,CCCCNC(=O)Nc1ccc(C(O)(C(=O)OC)C(F)(F)F)cc1 (stereo not drawn),-2.26

row,Structure (SMILES),z-score
1,CCOC(=O)C1CCN(C=C2C(=O)N(C)C(=S)N(C)C2=O)CC1,-0.441
2,O=C(CN1CCCCC1)c1ccccc1Cl,0.466
3,CCOC(=O)c1c(N)n(Cc2ccccc2)c2nc3ccccc3nc12,-0.161
4,CCC(C)N1C(=O)/C(=C\c2ccc(N3CCCCCC3)cc2)C(=O)NC1=S (stereo not drawn),-0.384
5,CCOC(=O)C(O)(c1ccc(NC(=O)NC2CCCCC2)cc1)C(F)(F)F (stereo not drawn),0.0169
6,CCOC(=O)C1=C(N)OC2=C(C(=O)CC(C)(C)C2)C12C(=O)Nc1ccccc12 (stereo not drawn),0.721
7,Cc1c(C=O)c2ccccc2n1Cc1ccc([N+](=O)[O-])cc1,-0.755
8,Cc1ccc(CN2C(=O)CN=C(c3ccccc3)c3ccccc32)cc1,0.176
9,CCc1nnc(NC(=O)CCc2nc(C3=CCN(C)CC3)no2)s1,0.528
10,Cc1ccc(C)c(NC2=NCCCS2)c1,0.861
11,O=P(C(c1c[nH]c2ccccc12)N1CCOCC1)(N1CCOCC1)N1CCOCC1 (stereo not drawn),-0.0965
12,CN1C2CCC1CC(OC(=O)c1cc(Cl)cc(Cl)c1)C2 (stereo not drawn),1.33
13,Cc1ccc2c(c1)N(CCC(=O)N1CCC3(CC1)OCCO3)C(=O)CO2,0.152
14,CCC(=NCCCN1CCOCC1)c1c(O)n(Cc2ccccc2)c(=O)[nH]c1=O,-0.0284
15,Cc1ccc(O)c(C(=O)c2cc(C(=O)NCc3ccccc3)c(=O)n(Cc3ccccc3)c2)c1,-0.479
16,COC(=O)[C@@H]1[C@@H](C(=O)OC)C2(c3ccccc3-c3ccccc32)N(c2ccc(Cl)cc2)N1C#N,0.16
17,Cc1nnc2n1-c1ccc(Br)cc1C(c1ccccc1Cl)=NC2,0.0708
18,CC(=NCc1ccc2c(c1)OCO2)c1c(O)n(C)c(=O)n(C)c1=O,0.356
19,COc1ccccc1OCCCn1cc(C(=O)c2ccco2)c2ccccc21,-1.11
20,CN1CCN(c2c(N)c(=O)oc3ccccc23)CC1,0.0987
21,O=C1NC(=S)NC(=O)C12C(c1ccc(F)cc1)NC(=S)NC2c1ccc(F)cc1 (stereo not drawn),0.361
22,CCN1CCN(S(=O)(=O)c2ccc(Cl)nc2)CC1,-0.242

row,Structure (SMILES),z-score
1,COc1ccccc1-n1c(-c2ccoc2)nc2ccccc2c1=O,-0.202
2,CC1(C)CN2C(c3ccc(Cl)cc3)N2C1 (stereo not drawn),0.161
3,CSc1nnc(C2CCNCC2)n1C,-1.17
4,CCN1C(=O)/C(=C/c2ccc3c(c2)CCN3CCCCl)C(=O)NC1=S,-0.22
5,CN1C(=O)N(C)C(=O)C2(Cc3cc([N+](=O)[O-])ccc3N(C)C2c2ccccc2)C1=O (stereo not drawn),0.143
6,CCOC(=O)C(NC(C)=O)C(OC(C)=O)c1cccc(N(CCCl)CCCl)c1 (stereo not drawn),0.00624
7,C=CCNC(=O)c1c(N)n(Cc2ccco2)c2nc3ccccc3nc12,-0.402
8,CN1C(=O)/C(=C\N2CCc3ccccc32)C(=O)NC1=S,-0.284
9,CC(=O)N1CCN(c2ccc(N=Cc3c(O)n(-c4ccc(Cl)cc4)c(=O)[nH]c3=O)cc2)CC1,-0.203
10,CCN(CC)CCCN=C(C)c1c(O)n(C2CCCCC2)c(=O)[nH]c1=O,-0.296
11,CCc1nc2ccccc2c(=O)n1-c1cccc(OC)c1,-0.521
12,O=c1[nH]c(=O)n(-c2cccc3ccccc23)c(O)c1/C=N/N1CCCCC1c1cccnc1 (stereo not drawn),0.183
13,CN1CCN(c2ccc(N)cc2)CC1,0.349
14,CC(=O)N1CN2CN(C(C)=O)CC(C(=O)c3ccccc3)(C2)C1,0.471
15,Cc1nn(-c2ccccc2)c(Cl)c1C1C(C#N)=C(N)Oc2c1c(=O)oc1ccccc21 (stereo not drawn),-0.889
16,CC(=NCCO)c1c(O)n(C)c(=O)n(C)c1=O,0.391
17,CC(C)OP(=O)(OC(C)C)C(O)c1cccnc1 (stereo not drawn),-0.136
18,CCOC(=O)N(CC)c1ccc(C(O)(C(=O)OC)C(F)(F)F)cc1 (stereo not drawn),-0.282
19,O=C(COc1ccc(Br)cc1)N1CCN(Cc2c[nH]c3ccccc23)CC1,0.613
20,COc1ccc(-c2nc3ccccc3c(=O)n2-c2cccnc2)cc1,-0.0323
21,COc1ccc(-n2c(O)c(C=Nc3c(C)n(C)n(-c4ccccc4)c3=O)c(=O)[nH]c2=O)cc1,-0.0439
22,O=P(NS(=O)(=O)c1ccccc1)(Oc1ccccc1)Oc1ccccc1,-0.453

row,Structure (SMILES),z-score
1,CCOc1ccc(-n2c(-c3ccoc3)nc3ccccc3c2=O)cc1,-0.321
2,CC1CCCCN1CC(=O)c1ccc2cc[nH]c2c1 (stereo not drawn),-0.179
3,O=c1[nH]c(=O)n(-c2cccc3ccccc23)c(O)c1C=NCc1ccc2c(c1)OCO2,0.0424
4,CN1CSC(=S)N(C)C1,1.21
5,Cc1cc(/C=C2\C(=O)NC(=O)N(c3ccc(Cl)cc3)C2=O)c(C)n1-c1sc2c(c1C#N)CCCC2,0.0605
6,Nc1ccc2c(c1)oc1ccccc12,0.0995
7,N#CC1=C(N)Oc2c(c(=O)oc3ccccc23)C1c1ccccc1OC(=O)c1cccs1 (stereo not drawn),-0.275
8,OC(Cn1c2ccccc2c2ccccc21)C[n+]1ccccc1 (stereo not drawn),-0.244
9,CC(C)CCC1(CN2CCCC2=O)C(=O)NC(=O)NC1=O,0.137
10,COc1ccc(OP(=O)(Nc2ccccc2)Nc2ccccc2)cc1,-0.396
11,O=C(c1c[nH]cc1-c1ccccc1)c1cccc2ccccc12,0.261
12,COc1ccc(/C=N/N=C(/N)N[N+](=O)[O-])c(OC)c1,-0.203
13,O=C(Cc1ccccc1)Oc1ccccc1N1C(=O)CCC1=O,0.366
14,CCC(=O)c1cc(F)c(N2CCN(CC)CC2)cc1C,-0.2
15,O=C1/C(=C/c2ccc3c(c2)OCO3)N2CCC1CC2,-0.291
16,O=S(=O)(c1ccccc1)N1CC1c1ccccc1 (stereo not drawn),-0.511
17,CN(Cc1ccccc1)C(=C(Cl)Cl)/C(=C1/NCCN1Cc1ccc(Cl)nc1)[N+](=O)[O-],-0.41
18,Cn1c(O)c(C=NC2CC3CCC2(C)C3(C)C)c(=O)[nH]c1=O (stereo not drawn),0.471
19,Cc1cc(=O)n(-c2ccccc2)n1-c1ccccc1,0.00242
20,C=CCn1c(=O)c(C=Nc2cccc([N+](=O)[O-])c2)c(O)n(CCCC)c1=O,-0.737
21,Cc1nn(Cc2ccccc2)c(Cl)c1C(=O)NC1CCCc2ccccc21 (stereo not drawn),-0.276
22,CCC(=Nc1ccccc1NC(C)=O)c1c(O)n(C)c(=O)n(C)c1=O,-0.32

row,Structure (SMILES),z-score
1,C[N+]1=C(/C=C/Nc2ccccc2)C(C)(C)c2ccccc21,-1.45
2,O=c1c2ccccc2nc(-c2ccccc2)n1-c1ccncc1,-0.0159
3,CCOc1ccc(N2C(=O)NC(=O)/C(=C\c3cc(OC)c(OC)cc3[N+](=O)[O-])C2=O)cc1,1.05
4,Cc1cccc(-n2c(O)c(/C=N/Nc3nc4c(c(=O)n(C)c(=O)n4C)n3C)c(=O)[nH]c2=S)c1,-0.186
5,O=C(c1cc([N+](=O)[O-])ccc1N1CCNCC1)N1CCOCC1,-0.253
6,CC(C(=O)c1c[nH]c2ccccc12)N1CCSCC1 (stereo not drawn),-0.0842
7,O=C1NC(=O)N(Cc2ccco2)C(=O)/C1=C/c1cccn1CCOc1ccccc1Cl,-0.183
8,CC(=O)OC1N=C(c2ccccc2)c2ccccc2NC1=O (stereo not drawn),0.273
9,CC(C(=O)Nc1ccc(Br)cc1C(=O)c1ccccc1)N1CCCCC1 (stereo not drawn),-0.426
10,CC(C)NS(=O)(=O)c1ccc(OCC(=O)N2CCN(C)CC2)cc1,-0.134
11,COC(=O)c1c(C)n(Cc2ccco2)c2ccc(O)cc12,0.101
12,O=C(O)c1cc2ccccc2oc1=O,-0.232
13,Cc1c(C(=O)N2CCC3(CC2)OCCO3)oc2ccc(S(=O)(=O)N3CCOCC3)cc12,0.775
14,Cc1ccccc1N1C(=O)NC(=O)/C(=C\c2cc(Br)c(N3CCOCC3)o2)C1=O,-0.202
15,O=C(Nc1ccc2ccccc2c1)c1nn(C23CC4CC(CC(C4)C2)C3)cc1Br,0.0576
16,O=c1c2ccccc2nc(-c2ccco2)n1-c1cccnc1,0.0422
17,CCC(=NCC1CCCO1)c1c(O)n(-c2ccc(Cl)cc2)c(=O)[nH]c1=O (stereo not drawn),-0.933
18,O=P1(Nc2cccnc2)COc2ccccc2OC1,-0.0117
19,COc1ccccc1N1CCN(Cc2c(F)cccc2Cl)CC1,0.521
20,CC(=O)OC1N=C(c2ccccc2)c2cc(Br)ccc2N(C)C1=O (stereo not drawn),-0.255
